Consider 77 compounds from the supplement of paper PMC10600219.

Counter-ions that a name gives are not always drawn. The full ranking holds about 2,800 compounds; the median of “cell viability relative to vehicle” is about 1.1, and the lowest 2% start at about 0.19. Some of the results follow.

This assay relates to NCI-H2228 parental. Nature of the assay: cell viability relative to vehicle (fraction of vehicle); NCI-H2228 is an ALK-positive lung cancer line and DTP means drug-tolerant persister; higher = less growth inhibition. The note with it: 100 nM; treatment time 6 days. The method, boiled down: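 Parental NCI-H2228 cells and drug-tolerant persister cells (made with 1000 nM of a targeted drug for 13 days) were seeded in 384-well plates. The next day, the 3114-agent TargetMol anti-cancer compound library was added at 100 nM, with DMSO as vehicle. After 6 days, ATP was read with the CellTiter-Glo 3D Cell Viability Assay. Each value is cell viability relative to vehicle-treated cells.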
With `O=C(Nc1cccc(Cl)c1)Nc1ncc(CCNc2ncnc3ccsc23)s1` [SNS-314 Mesylate], the cell viability was 0.126.
In the case of `Nc1n[nH]c2cc(-c3ccc(=O)n(Cc4cccc(Cl)c4)c3)ccc12` it was 1; in that of `COc1ccc(-c2oc3cc(OC)c(OC)c(O)c3c(=O)c2OC)cc1O` [Vitexicarpin], 1.02; in that of `CC(C)C(C(=O)O)N1C(=O)C(=Cc2ccc(Br)cc2)SC1=S` (configuration not stated), 1.04.
In the case of `CN(C)c1ccc(C2Nc3ccc4ccccc4c3C3=C2C(=O)CC(C)(C)C3)cc1Br` (configuration not stated) [Glutaminase C-IN-1] it was 1.04.
In the case of `Clc1ccc2c(NCCNc3ccnc4cc(Cl)ccc34)ccnc2c1` it was 1.14; in that of `CN1CCN(c2ccc(C(=O)Nc3n[nH]c4ccc(Cc5cc(F)cc(F)c5)cc34)c(NC3CCOCC3)c2)CC1` [Entrectinib], 0.619.
As for `S=P(N1CC1)(N1CC1)N1CC1` [Triethylenethiophosphoramide], the cell viability is 0.83.
The same measure for `c1cnc(NCc2ccc(CNc3ncccn3)cc2)nc1`: 1.06; for `O=C(Nc1cc(Cl)cc2c1[nH]c1cnccc12)c1cccnc1`: 1.06.
In the case of `COc1ccc2cc(Br)ccc2c1` [2-Bromo-6-methoxynaphthalene], the cell viability turned out to be 1.18.
The same measure for `CNC(=O)CN1CCC(Oc2cc3c(Nc4cccc(Cl)c4F)ncnc3cc2OC)CC1` [Sapitinib]: 1.08; for `CCCS(=O)(=O)Nc1ccc(F)c(C(=O)c2c[nH]c3ncc(Cl)cc23)c1F`: 0.928.
In the case of `CCN1CCCC1CNC(=O)c1cc(S(=O)(=O)CC)c(N)cc1OC` (configuration not stated) [Amisulpride] it was 1.1; in that of `CC1CCc2cc(F)cc3c(=O)c(C(=O)O)cn1c23` (configuration not stated) [Flumequine], 1.08.
In the case of `COc1cc(N2CCC(N3CCN(C)CC3)CC2)ccc1Nc1ncc(Cl)c(Nc2ccccc2S(=O)(=O)C(C)C)n1` it was 0.421.
In the case of `COc1c(O)cc2c(c1O)[C@@H]1O[C@H](CO)[C@@H](O)[C@H](O)[C@H]1OC2=O` [Bengenin], the cell viability turned out to be 1.22.
The same measure for `CC(C)[C@H]1CC[C@H](C(=O)N[C@H](Cc2ccccc2)C(=O)O)CC1` [Nateglinide]: 1.2; for `Nc1cccc(-c2cc3c(Oc4cccc(O)c4)ncnc3[nH]2)c1`: 0.996; for `COc1ccc(-n2nc(C(N)=O)c3c2C(=O)N(c2ccc(N4CCCCC4=O)cc2)CC3)cc1` [Apixaban]: 0.894.
Consider `COc1ccc(C(C)=O)c(O)c1` [Paeonol], for which the cell viability came out at 1.07.
In the case of `C[C@H]1CC[C@@]2(OC1)O[C@H]1C[C@H]3[C@@H]4CC[C@@H]5C[C@@H](O[C@@H]6O[C@H](CO)[C@H](O)[C@H](O)[C@H]6O[C@@H]6O[C@H](CO)[C@@H](O)[C@H](O)[C@H]6O)CC[C@]5(C)[C@H]4CC[C@]3(C)[C@H]1[C@@H]2C` [Timosaponin AIII] it was 1.17; in that of `COc1cc(-c2nc3ccccc3s2)ccc1O`, 1.03; in that of `COc1ccc(CCCOC(Cn2ccnc2)c2ccc(OC)cc2)cc1` (configuration not stated), 1.14.
For `COc1ccccc1OCCNCC(O)COc1cccc2[nH]c3ccccc3c12` (configuration not stated) [Carvedilol phosphate], the cell viability worked out at 1.15.
For the compound `COc1ccccc1OCCNCC(O)COc1cccc2[nH]c3ccccc3c12` (configuration not stated) [Carvedilol], the cell viability stood at 1.09.
For `COc1cc2c(cc1OC)-c1cc3nc4ccccc4nc3n1C(C)(C)C2`, the cell viability stood at 1.11.
On to `CCn1cc(C(=O)O)c(=O)c2cc(F)c(N3CCNCC3)cc21` [Norfloxacin], for which the cell viability came out at 0.956.
In the case of `COC1(c2sc3c(N4CCOCC4)nc(-c4cnc(N)nc4)nc3c2C)COC1`, the cell viability stood at 0.499.
Turning to `FC(F)(F)c1ccccc1-c1nc(NCc2cccs2)c2ccccc2n1`, the cell viability worked out at 1.04.
In the case of `CC(CN1c2ccccc2Sc2ccccc21)N(C)C` (configuration not stated) [Promethazine hydrochloride] it was 0.834.
`CC(CN1c2ccccc2Sc2ccccc21)N(C)C` (configuration not stated) [Promethazine]: the cell viability came out at 1.11.
In the case of `C[C@H]1CNC(=O)c2cnn3ccc(nc23)N[C@H](C)c2cc(F)ccc2O1` it was 0.544.
As to `Cc1ccc(NC(=O)Nc2cc(C(F)(F)F)ccc2F)cc1Nc1ccc2c(c1)NC(=O)/C2=C\c1ccc[nH]1`, the cell viability was found to be 1.13.
The same measure for `CNC(=O)c1ccccc1Sc1ccc2c(/C=C/c3ccccn3)n[nH]c2c1` [Axitinib]: 1.28.
The same measure for `CN(C)[C@@H]1CCc2[nH]c3ccc(NC(=O)c4ccc(F)cc4)cc3c2C1`: 1.11; for `COc1cc(C[C@H]2C(=O)OC[C@@H]2Cc2ccc(OC)c(OC)c2)ccc1O` [Arctigenin]: 1.1; for `NS(=O)(=O)c1cc2c(cc1C(F)(F)F)NC(Cc1ccccc1)NS2(=O)=O` (configuration not stated) [Bendroflumethiazide]: 1.01.
With `C[C@@]12CC[C@@H]3[C@@](CC[C@H]4[C@@]3(C)CCC[C@@]4(C)C(=O)O)(CC1=O)C2` [Isosteviol], the cell viability turned out to be 1.07.
In the case of `CO[C@H]1CC[C@H](N2C(=O)CNc3ncc(-c4ccc(C(C)(C)O)nc4)nc32)CC1` it was 1.07; in that of `O=C1c2ccccc2-c2n[nH]c3cccc1c23` [Pyrazolanthrone], 1.16.
In the case of `O=C(c1ccc(OCCN2CCCCC2)cc1)c1c(-c2ccc(O)cc2)sc2cc(O)ccc12` [Raloxifene hydrochloride] it was 1.21; in that of `CCOC(=O)c1c(C)[nH]c(C=C2C(=O)Nc3ccccc32)c1C` [VEGFR2 Kinase Inhibitor I], 1.04; in that of `CNC(=O)c1ccc(N2C(=S)N(c3cnc(C#N)c(C(F)(F)F)c3)C(=O)C23CCC3)cc1F` [Apalutamide], 0.898.
Take `Cn1nnc(-c2ccc(-c3ccc(N4C[C@H](CO)OC4=O)cc3F)cn2)n1` [Torezolid]: the cell viability turned out to be 0.927.
On to `Nc1cccc(-c2nc(N3CCOCC3)c3oc4ncccc4c3n2)c1` [PIK-inhibitors], for which the cell viability came out at 1.11.
`CCCCCCOc1cc(C)c(O)c(C)c1C`: the cell viability was 1.11.
The same measure for `N#Cc1ccc(COc2ccc(-c3cccc4nc(NC(=O)C5CC5)nn34)cc2)cn1` [GLPG0634 analogue]: 0.961; for `O=C1Nc2ccc(I)cc2/C1=C/c1cc(Br)c(O)c(Br)c1`: 1.13.
In the case of `C=C(C)[C@@H]1CC[C@]2(C)[C@H](CC=C3[C@@H]4[C@@H](C)[C@H](C)CC[C@]4(C)CC[C@]32C)[C@@]1(C)CCC(=O)O` [Roburic acid] it was 1.08.
Consider `CC1(C)O[C@@H]2[C@@H](CO[C@@]3(COS(N)(=O)=O)OC(C)(C)O[C@@H]23)O1` [Topiramate], for which the cell viability is 1.05.
`CCNc1nc(Nc2cc(F)c(C(=O)N3CCOCC3)cc2OC)ncc1C(F)(F)F`: the cell viability stood at 1.06.
The same measure for `CCCCN1CCC(CNC(=O)c2c3n(c4ccccc24)CCCO3)CC1` [Piboserod]: 1.22; for `CCNC(=O)[C@@H]1CCCN1C(=O)[C@H](CCCNC(=N)N)NC(=O)[C@H](CC(C)C)NC(=O)[C@@H](CC(C)C)NC(=O)[C@H](Cc1ccc(O)cc1)NC(=O)[C@H](CO)NC(=O)[C@H](Cc1c[nH]c2ccccc12)NC(=O)[C@H](Cc1c[nH]cn1)NC(=O)[C@@H]1CCC(=O)N1` [Leuprolide Acetate]: 0.864; for `CC(C)Cn1cnc2c(N)nc3ccccc3c21` [Imiquimod]: 1.05.
As to `CN[C@H](CNC(=O)N1CCC[C@@H]([C@@H](OCCNC(=O)OC)c2cccc(Cl)c2)C1)C[C@H]1CCCOC1`, the cell viability was found to be 1.04.
As for `COc1ccc(-c2coc3cc(O[C@@H]4O[C@H](CO)[C@@H](O)[C@H](O)[C@H]4O)ccc3c2=O)cc1O` [Calycosin-7-O-beta-D-glucoside], the cell viability was determined as 1.06.
In the case of `Oc1nc(-c2ccc(C(F)(F)F)cc2)nc2c1CSCC2` it was 1.02; in that of `COc1ccc2c3c1O[C@H]1C[C@@H](O)C=C[C@@]31CCN(C)C2` [Galanthamine HBr], 1.12.
In the case of `CCCC(=O)O[C@]1(C(=O)CO)CC[C@H]2[C@@H]3CCC4=CC(=O)CC[C@]4(C)[C@H]3[C@@H](O)C[C@@]21C` [Hydrocortisone butyrate] it was 0.825; in that of `Cc1nnc(SCC2=C(C(=O)O)N3C(=O)[C@@H](NC(=O)Cn4cnnn4)[C@H]3SC2)s1` [Cefazolin sodium salt], 1.27; in that of `Cc1cc(C#N)cc(C)c1Oc1nc(Nc2ccc(C#N)cc2)nc(N)c1Br` [Etravirine], 1.25.
Regarding `COC(=O)c1ccc(O)c(O)c1` [Methyl protocatechuate], the cell viability stood at 0.886.
In the case of `O=c1[nH]c(=O)n([C@H]2C[C@H](O)[C@@H](CO)O2)cc1C(F)(F)F` [Trifluridine] it was 0.889.
In the case of `c1cc(CN2CCCNCCNCCCNCC2)ccc1CN1CCCNCCNCCCNCC1` [Plerixafor], the cell viability is 0.972.
The same measure for `O=C1OC(=O)[C@H]2[C@@H]1[C@@H]1CC[C@H]2O1` [Norcantharidin]: 0.995.
The same measure for `CC(=O)O[C@@H]1CC[C@@]2(C)[C@@H](CC[C@]3(C)[C@@H]2C(=O)C=C2[C@@H]4[C@@H](C)[C@H](C)CC[C@]4(C)CC[C@]23C)[C@@]1(C)C(=O)O`: 1.04.
The same measure for `CC(C)n1cnc2c(NCCc3ccc(O)cc3)nc(-c3csc4ccccc34)nc21` [StemRegenin 1]: 1.1.
In the case of `O=C(NNc1ccccc1)c1ccncc1` [PluriSln 1], the cell viability came out at 1.06.
`CCNC(=O)c1cc2c(-c3cc(OCCN4CCCC4)c(Cl)cc3Cl)nc(N)nc2s1`: the cell viability came out at 1.06.
Take `Cc1ccccc1C(=O)Nc1ccc(C(=O)N2CCCC(N(C)C)c3ccccc32)cc1` (configuration not stated) [Mozavaptan]: the cell viability was determined as 1.1.
As to `Cc1cccc(-c2[nH]ncc2-c2ccc3ncccc3n2)n1`, the cell viability was found to be 0.992.
`O=C(NCCCNc1nc(Nc2cccc(NC(=O)N3CCCC3)c2)ncc1I)c1cccs1`: the cell viability was 1.07.
The same measure for `C=C(C)[C@@H]1CC[C@]2(C)CC[C@]3(C)[C@H](CC[C@@H]4[C@@]5(C)CC[C@H](O)C(C)(C)[C@@H]5CC[C@]43C)[C@@H]12` [Lupeol]: 1.15; for `O=C(O)c1cc(NCc2cc(O)ccc2O)ccc1O` [lavendustin C]: 1.07.
Take `C=C1CCC[C@]2(C)C[C@@H]3OC(=O)C(C)=C3C[C@@H]12` [Atractylenolide II]: the cell viability is 0.925.
In the case of `CCCCCCCCNC(C)C(O)c1ccc(SC(C)C)cc1` (configuration not stated) [Suloctidil] it was 1.08.
